The other results are listed elsewhere or left out. The list includes weakly bound sequences.

The experiment deals with T1, MBP-FoxP3dN (UniProt Q99JB6).
T1 sequence: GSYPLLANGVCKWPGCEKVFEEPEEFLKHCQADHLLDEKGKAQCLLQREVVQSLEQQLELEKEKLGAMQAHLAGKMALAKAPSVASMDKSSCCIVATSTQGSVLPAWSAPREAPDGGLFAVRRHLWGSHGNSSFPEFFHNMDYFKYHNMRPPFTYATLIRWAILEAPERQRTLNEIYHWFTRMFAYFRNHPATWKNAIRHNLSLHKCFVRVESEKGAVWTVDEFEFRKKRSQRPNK
The experiment is described as follows: PD-seq (MBP pull-down with sequencing). Conditions: 20 mM Tris-HCl pH 7.5, 100 mM NaCl, 1.5 mM MgCl2, 0.4 uM protein, 0.1 uM dsDNA library, 30 min, room temperature, amylose pull-down; high values mean tight binding; double strand, one strand shown.
Take “GATGATTGTTCTCCCAGCTGATGAATTCCAAATCTCGAGTAAACAAATTTTCCTAATCTTTCTGTTCAAGCGCCATCTAC”: the binding signal (RPM ratio (pull-down/input)) was 0.26. As for “GATGATTGTTCTCCCAGCTGATGAATTGAAGCCTTCGAGTAAACAAATTTTCCTAATCTTTCTGTTCAAGCGCCATCTAC”, the figure is 1.36; as for “GATGATTGTTCTCCCAGCTGATGAATTCGTTGTGTCGAGTAAACAAATTTTCCTAATCTTTCTGTTCAAGCGCCATCTAC”, 5.69. To “GATGATTGTTCTCCCAGCTGATGAATTGCGTTTATCGAGTAAACAAATTTTCCTAATCTTTCTGTTCAAGCGCCATCTAC” belongs 3.36; to “GATGATTGTTCTCCCAGCTGATGAATTAACTCCATCGAGTAAACAAATTTTCCTAATCTTTCTGTTCAAGCGCCATCTAC”, 0.274. As for “GATGATTGTTCTCCCAGCTGATGAATTAGAACCCTCGAGTAAACAAATTTTCCTAATCTTTCTGTTCAAGCGCCATCTAC”, the figure is 0.253; as for “GATGATTGTTCTCCCAGCTGATGAATTCACGCCTTCGAGTAAACAAATTTTCCTAATCTTTCTGTTCAAGCGCCATCTAC”, 2.31; as for “GATGATTGTTCTCCCAGCTGATGAATTACTGCCGTCGAGTAAACAAATTTTCCTAATCTTTCTGTTCAAGCGCCATCTAC”, 0.475. On to “GATGATTGTTCTCCCAGCTGATGAATTAGTTCCATCGAGTAAACAAATTTTCCTAATCTTTCTGTTCAAGCGCCATCTAC”, for which the binding signal (RPM ratio (pull-down/input)) was 0.439. To “GATGATTGTTCTCCCAGCTGATGAATTCGTGCAGTCGAGTAAACAAATTTTCCTAATCTTTCTGTTCAAGCGCCATCTAC” belongs 0.598. “GATGATTGTTCTCCCAGCTGATGAATTAGCCCGGTCGAGTAAACAAATTTTCCTAATCTTTCTGTTCAAGCGCCATCTAC”: the binding signal (RPM ratio (pull-down/input)) was 0.201. To “GATGATTGTTCTCCCAGCTGATGAATTCAAATTATCGAGTAAACAAATTTTCCTAATCTTTCTGTTCAAGCGCCATCTAC” belongs 0.576; to “GATGATTGTTCTCCCAGCTGATGAATTAGGTGGCTCGAGTAAACAAATTTTCCTAATCTTTCTGTTCAAGCGCCATCTAC”, 0.625. For the sequence “GATGATTGTTCTCCCAGCTGATGAATTATCACGTTCGAGTAAACAAATTTTCCTAATCTTTCTGTTCAAGCGCCATCTAC”, the binding signal (RPM ratio (pull-down/input)) was found to be 0.424. As for “GATGATTGTTCTCCCAGCTGATGAATTAAGTCTATCGAGTAAACAAATTTTCCTAATCTTTCTGTTCAAGCGCCATCTAC”, the figure is 0.686.

“GATGATTGTTCTCCCAGCTGATGAATTGACGCGTTCGAGTAAACAAATTTTCCTAATCTTTCTGTTCAAGCGCCATCTAC”: the binding signal (RPM ratio (pull-down/input)) is 1.34. “GATGATTGTTCTCCCAGCTGATGAATTTTGAACTTCGAGTAAACAAATTTTCCTAATCTTTCTGTTCAAGCGCCATCTAC”: the binding signal (RPM ratio (pull-down/input)) came to 0.374. As for “GATGATTGTTCTCCCAGCTGATGAATTTTGCGGCTCGAGTAAACAAATTTTCCTAATCTTTCTGTTCAAGCGCCATCTAC”, the figure is 1.45; as for “GATGATTGTTCTCCCAGCTGATGAATTTTGAAATTCGAGTAAACAAATTTTCCTAATCTTTCTGTTCAAGCGCCATCTAC”, 0.592; as for “GATGATTGTTCTCCCAGCTGATGAATTATTAAGATCGAGTAAACAAATTTTCCTAATCTTTCTGTTCAAGCGCCATCTAC”, 0.268. As for “GATGATTGTTCTCCCAGCTGATGAATTATAGAACTCGAGTAAACAAATTTTCCTAATCTTTCTGTTCAAGCGCCATCTAC”, the binding signal (RPM ratio (pull-down/input)) came to 0.249. To “GATGATTGTTCTCCCAGCTGATGAATTCCAAGGCTCGAGTAAACAAATTTTCCTAATCTTTCTGTTCAAGCGCCATCTAC” belongs 0.233; to “GATGATTGTTCTCCCAGCTGATGAATTGCTCTCATCGAGTAAACAAATTTTCCTAATCTTTCTGTTCAAGCGCCATCTAC”, 0.606. To “GATGATTGTTCTCCCAGCTGATGAATTTTCTCAGTCGAGTAAACAAATTTTCCTAATCTTTCTGTTCAAGCGCCATCTAC” belongs 0.181. As for “GATGATTGTTCTCCCAGCTGATGAATTAGCCAACTCGAGTAAACAAATTTTCCTAATCTTTCTGTTCAAGCGCCATCTAC”, the figure is 0.284; as for “GATGATTGTTCTCCCAGCTGATGAATTGAAATATTCGAGTAAACAAATTTTCCTAATCTTTCTGTTCAAGCGCCATCTAC”, 0.426; as for “GATGATTGTTCTCCCAGCTGATGAATTTTAGGGCTCGAGTAAACAAATTTTCCTAATCTTTCTGTTCAAGCGCCATCTAC”, 0.306. As for “GATGATTGTTCTCCCAGCTGATGAATTCGGTAGGTCGAGTAAACAAATTTTCCTAATCTTTCTGTTCAAGCGCCATCTAC”, the binding signal (RPM ratio (pull-down/input)) stood at 0.485.

Regarding “GATGATTGTTCTCCCAGCTGATGAATTCTCACGCTCGAGTAAACAAATTTTCCTAATCTTTCTGTTCAAGCGCCATCTAC”, the binding signal (RPM ratio (pull-down/input)) is 0.337. To “GATGATTGTTCTCCCAGCTGATGAATTCCCGCGCTCGAGTAAACAAATTTTCCTAATCTTTCTGTTCAAGCGCCATCTAC” belongs 0.366; to “GATGATTGTTCTCCCAGCTGATGAATTGAGCCGGTCGAGTAAACAAATTTTCCTAATCTTTCTGTTCAAGCGCCATCTAC”, 0.333; to “GATGATTGTTCTCCCAGCTGATGAATTACTGGTCTCGAGTAAACAAATTTTCCTAATCTTTCTGTTCAAGCGCCATCTAC”, 0.364. As for “GATGATTGTTCTCCCAGCTGATGAATTCATTGGCTCGAGTAAACAAATTTTCCTAATCTTTCTGTTCAAGCGCCATCTAC”, the figure is 0.916; as for “GATGATTGTTCTCCCAGCTGATGAATTACCGGATTCGAGTAAACAAATTTTCCTAATCTTTCTGTTCAAGCGCCATCTAC”, 0.239; as for “GATGATTGTTCTCCCAGCTGATGAATTGCCCACTTCGAGTAAACAAATTTTCCTAATCTTTCTGTTCAAGCGCCATCTAC”, 0.507.

Regarding “GATGATTGTTCTCCCAGCTGATGAATTTACGTGGTCGAGTAAACAAATTTTCCTAATCTTTCTGTTCAAGCGCCATCTAC”, the binding signal (RPM ratio (pull-down/input)) is 0.556.

With “GATGATTGTTCTCCCAGCTGATGAATTCAATCCATCGAGTAAACAAATTTTCCTAATCTTTCTGTTCAAGCGCCATCTAC”, the binding signal (RPM ratio (pull-down/input)) came to 0.349. As for “GATGATTGTTCTCCCAGCTGATGAATTTATTCAGTCGAGTAAACAAATTTTCCTAATCTTTCTGTTCAAGCGCCATCTAC”, the figure is 0.473. To “GATGATTGTTCTCCCAGCTGATGAATTGCTTGTATCGAGTAAACAAATTTTCCTAATCTTTCTGTTCAAGCGCCATCTAC” belongs 1.9; to “GATGATTGTTCTCCCAGCTGATGAATTATCCCGATCGAGTAAACAAATTTTCCTAATCTTTCTGTTCAAGCGCCATCTAC”, 0.198; to “GATGATTGTTCTCCCAGCTGATGAATTGCGTAACTCGAGTAAACAAATTTTCCTAATCTTTCTGTTCAAGCGCCATCTAC”, 2.16.

Take “GATGATTGTTCTCCCAGCTGATGAATTGGAAATATCGAGTAAACAAATTTTCCTAATCTTTCTGTTCAAGCGCCATCTAC”: the binding signal (RPM ratio (pull-down/input)) came to 0.346. As for “GATGATTGTTCTCCCAGCTGATGAATTTCCGAATTCGAGTAAACAAATTTTCCTAATCTTTCTGTTCAAGCGCCATCTAC”, the figure is 0.72; as for “GATGATTGTTCTCCCAGCTGATGAATTATGCTACTCGAGTAAACAAATTTTCCTAATCTTTCTGTTCAAGCGCCATCTAC”, 2.64. For “GATGATTGTTCTCCCAGCTGATGAATTGCGACGATCGAGTAAACAAATTTTCCTAATCTTTCTGTTCAAGCGCCATCTAC”, the binding signal (RPM ratio (pull-down/input)) was 0.544. To “GATGATTGTTCTCCCAGCTGATGAATTTAAATGTTCGAGTAAACAAATTTTCCTAATCTTTCTGTTCAAGCGCCATCTAC” belongs 0.813; to “GATGATTGTTCTCCCAGCTGATGAATTCGGTTGTTCGAGTAAACAAATTTTCCTAATCTTTCTGTTCAAGCGCCATCTAC”, 4.55; to “GATGATTGTTCTCCCAGCTGATGAATTCTAGTACTCGAGTAAACAAATTTTCCTAATCTTTCTGTTCAAGCGCCATCTAC”, 0.444. “GATGATTGTTCTCCCAGCTGATGAATTAGCTCTGTCGAGTAAACAAATTTTCCTAATCTTTCTGTTCAAGCGCCATCTAC”: the binding signal (RPM ratio (pull-down/input)) is 0.279. To “GATGATTGTTCTCCCAGCTGATGAATTCGCCACTTCGAGTAAACAAATTTTCCTAATCTTTCTGTTCAAGCGCCATCTAC” belongs 1.71; to “GATGATTGTTCTCCCAGCTGATGAATTTTCCTCGTCGAGTAAACAAATTTTCCTAATCTTTCTGTTCAAGCGCCATCTAC”, 0.231; to “GATGATTGTTCTCCCAGCTGATGAATTCTGGGACTCGAGTAAACAAATTTTCCTAATCTTTCTGTTCAAGCGCCATCTAC”, 0.335.

As for “GATGATTGTTCTCCCAGCTGATGAATTGAGTCACTCGAGTAAACAAATTTTCCTAATCTTTCTGTTCAAGCGCCATCTAC”, the binding signal (RPM ratio (pull-down/input)) is 0.806. Turning to “GATGATTGTTCTCCCAGCTGATGAATTGTGGCCTTCGAGTAAACAAATTTTCCTAATCTTTCTGTTCAAGCGCCATCTAC”, the binding signal (RPM ratio (pull-down/input)) turned out to be 2.55. Take “GATGATTGTTCTCCCAGCTGATGAATTGGACCTGTCGAGTAAACAAATTTTCCTAATCTTTCTGTTCAAGCGCCATCTAC”: the binding signal (RPM ratio (pull-down/input)) came to 0.265. As for “GATGATTGTTCTCCCAGCTGATGAATTAGTATCTTCGAGTAAACAAATTTTCCTAATCTTTCTGTTCAAGCGCCATCTAC”, the figure is 2.31. With “GATGATTGTTCTCCCAGCTGATGAATTTAAGCTGTCGAGTAAACAAATTTTCCTAATCTTTCTGTTCAAGCGCCATCTAC”, the binding signal (RPM ratio (pull-down/input)) stood at 0.345. Take “GATGATTGTTCTCCCAGCTGATGAATTCTTATCCTCGAGTAAACAAATTTTCCTAATCTTTCTGTTCAAGCGCCATCTAC”: the binding signal (RPM ratio (pull-down/input)) came out at 0.237. As for “GATGATTGTTCTCCCAGCTGATGAATTGCTAGTCTCGAGTAAACAAATTTTCCTAATCTTTCTGTTCAAGCGCCATCTAC”, the figure is 0.843; as for “GATGATTGTTCTCCCAGCTGATGAATTAGTTTATTCGAGTAAACAAATTTTCCTAATCTTTCTGTTCAAGCGCCATCTAC”, 5.28; as for “GATGATTGTTCTCCCAGCTGATGAATTATTAAGTTCGAGTAAACAAATTTTCCTAATCTTTCTGTTCAAGCGCCATCTAC”, 0.341.

On to “GATGATTGTTCTCCCAGCTGATGAATTTAGTCATTCGAGTAAACAAATTTTCCTAATCTTTCTGTTCAAGCGCCATCTAC”, for which the binding signal (RPM ratio (pull-down/input)) came to 1.33.

In the case of “GATGATTGTTCTCCCAGCTGATGAATTAACCACGTCGAGTAAACAAATTTTCCTAATCTTTCTGTTCAAGCGCCATCTAC”, the binding signal (RPM ratio (pull-down/input)) amounted to 0.277.

The record behind these values is article PMC12820563.
